Results as given in paper PMC6212790.
The list shows a part of the results. At the low end of the ranking the order means little.

Biological target: T1, GST-Rok-C97-191 (UniProt O34857)
T1 sequence: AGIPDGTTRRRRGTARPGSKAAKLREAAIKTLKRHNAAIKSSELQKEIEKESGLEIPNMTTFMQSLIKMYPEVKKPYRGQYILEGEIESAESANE
Test: protein binding microarray;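 also: rank score from −0.5 (least bound) to 0.5 (best bound)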
Details: Rok is a gene silencer of Bacillus subtilis; high values mean tight binding; most listed sequences are background and not binding sites; double strand, one strand shown

Sequence | binding signal [E-score]
AAATGCGG | -0.0479
ACAGGTAT | 0.0727
GGAATCAA | 0.0197
AAGGCGCG | -0.264
CACACTGG | -0.21
ATTTACAA | 0.311
CTCGACTA | -0.0586
ATGTTGCG | 0.0814
AACCCGGC | -0.107
GGGGTCCA | -0.381
AGACGACT | -0.0103
ACATGTGC | -0.245
ACCCTACA | 0.0887
ACGGTTCC | -0.145
GGGCCCTA | -0.267
ACTTGAGA | -0.11
CATCATCA | -0.00228
AAATCCGT | -0.0518
ACGTCCCT | -0.276
ATGTTCCG | -0.134
ATCACAAG | -0.208
GACCCCTA | -0.256
GCATTATA | 0.119
ACCATGCA | 0.05

Sequence | binding signal [E-score]
AATGAGAA | 0.0746
AGCTCCGG | -0.0306
AGAGTAAT | 0.171
AGACCCGG | -0.0852
TCATCGGA | -0.0475
TACTGACA | 0.139
CAATATGA | -0.0102
TCTCCAGA | 0.00704
ACCCACCC | -0.0079
ATTTTCTC | 0.255
ATATGCGG | -0.00039
CATATATA | 0.353
CCCATTAC | -0.0975
CTCAGAAC | -0.0254
CCCCCAGA | -0.322
CGCTAGTA | 0.288
GGAGGGGA | -0.305
ATTTCCAC | 0.0511
ACTTTTAA | 0.18
CGTAGCTA | 0.289
GTCCACAA | -0.159
ACTCCTCC | -0.188
CAAATTAA | 0.151
AACCTCAT | -0.021

Sequence | binding signal [E-score]
ACTAGCCC | -0.181
TCTCTGAA | -0.0114
CCTCTCAG | -0.209
CCAGTGGG | -0.163
ACACGAGA | -0.085
CCCCGGTC | -0.153
ATGCGCTG | 0.0785
CGACGCAC | -0.208
GTGACGCA | -0.0754
ACCGGACT | -0.0634
TAAAGAGA | 0.0594
GGACTAAA | 0.0947
GTAATTCA | 0.231
CATACGGC | -0.237
ATTTTGAC | 0.235
GCTTCGCC | -0.154
CAGCCCCA | -0.194
CGAGTGAC | -0.202
CGGGTCAA | -0.231
CTTATAAG | 0.193
AGATGTCC | -0.208
ATGGCTAG | 0.0416
ATTCAAGA | -0.0708
GGGGCCCC | -0.386

Sequence | binding signal [E-score]
ATTGCGCG | 0.106
CCACTAGC | -0.0872
ATAGCACA | -0.0082
AGAACCCT | -0.282
GACTCCTC | -0.29
CACTACCG | 0.065
TACAAGCA | 0.0903
CGATTGAC | -0.0318
ATCTACAG | 0.309
ACAAAGCT | 0.103
CAAAGGCG | -0.161
CGAACCAA | -0.129
AAAACGGA | -0.107
GTGCGAGA | -0.108
ATTTACCG | 0.282
TACGAATA | 0.203
AAAAACAG | 0.154
TGGCCAAA | 0.00403
CACTCAAC | 0.0322
CGGACTGA | -0.294
CTTACGGA | -0.0436
GCTGTCAC | -0.189
